According to PubChem BioAssay AID887 (National Center for Advancing Translational Sciences (NCATS), 2007):
The campaign covered roughly 74,000 compounds. About 1,100 (1.5%) were called active. The shares of active, inactive and inconclusive entries below differ from those in the screen. The call rests on the fitted dose curve; in most records, active means well fitted inhibition curve with a large enough effect; inconclusive means small, poorly fitted or top-dose-only effect; inactive means no such curve, though single readings can be large or run the other way. Potencies of inconclusive entries are left out as doubtful fits.

target: Polyunsaturated fatty acid lipoxygenase ALOX15 (Homo sapiens) (UniProt P16050); assay: qHTS Assay for Inhibitors of 15-hLO (15-human lipoxygenase); conditions: purified 15hLO-1, xylenol orange hydroperoxide absorbance; activity change, negative = inhibition: at 57.1 µM (top of the series) unless noted; further: nearly all actives have a fitted effect of over 55% in size
Outline: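 Compounds were preincubated 15 min at room temperature with 40 nM purified human enzyme (25 mM Hepes pH 7.5, 0.01% Triton X-100); 50 uM arachidonic acid reacted 6 min. Fe-xylenol orange detection, 30 min, absorbance ratio 573/405 nm.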
On the % scale 0 is the no-effect control and ±100 the full control effect; potency means the concentration at half of the fitted maximal effect; tags describe the fitted curve by direction and shape.

Chain of UniProt P16050 (P16050 whole entry, looked up): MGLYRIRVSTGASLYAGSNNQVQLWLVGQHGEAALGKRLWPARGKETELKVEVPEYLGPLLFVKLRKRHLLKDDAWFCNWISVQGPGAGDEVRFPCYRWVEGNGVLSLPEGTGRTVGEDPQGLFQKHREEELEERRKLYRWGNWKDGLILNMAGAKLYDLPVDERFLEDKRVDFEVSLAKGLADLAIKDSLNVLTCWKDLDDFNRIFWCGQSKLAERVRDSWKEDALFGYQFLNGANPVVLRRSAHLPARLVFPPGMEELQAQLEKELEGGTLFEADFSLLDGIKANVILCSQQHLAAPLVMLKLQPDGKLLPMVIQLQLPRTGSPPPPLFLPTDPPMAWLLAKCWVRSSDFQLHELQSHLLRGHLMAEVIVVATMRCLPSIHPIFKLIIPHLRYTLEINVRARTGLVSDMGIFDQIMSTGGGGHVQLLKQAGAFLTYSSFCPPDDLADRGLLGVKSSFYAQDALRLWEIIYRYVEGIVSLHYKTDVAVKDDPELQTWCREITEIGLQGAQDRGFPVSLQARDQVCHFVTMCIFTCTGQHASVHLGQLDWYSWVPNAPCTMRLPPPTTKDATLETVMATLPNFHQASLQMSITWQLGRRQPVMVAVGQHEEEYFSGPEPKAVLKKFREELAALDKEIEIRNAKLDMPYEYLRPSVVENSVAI

SMILES | Potency | activity change, negative = inhibition
COc1ccc(Br)cc1C1CC(=O)N2CN(C)CSC2=C1C#N (configuration not stated) | inconclusive [inhibitor, partial curve] | 
CSc1nc2c(c(-c3ccc(O)cc3)c1C#N)CCC2 | inconclusive [inhibitor, single point] | 
Cc1c(C(=O)OCc2cc(=O)n3cc(Br)ccc3n2)oc2ccccc12 | inconclusive [inhibitor, single point] | 
CCOC(=O)c1oc2ccccc2c1CSc1nnnn1-c1ccc(C)cc1 | active: 1 µM | 
O=C1c2[nH]nc(-c3ccccc3O)c2C(c2cccc(Cl)c2)N1Cc1ccco1 (configuration not stated) | inconclusive [inhibitor, single point] | 
O=C(O)C/C=C\CC(=O)O | inconclusive [inhibitor, partial curve, poor fit] | 
CCSc1nnc(-c2ccc(Cl)cc2Cl)o1 | active: 3.16 µM | 
CCSc1ccccc1C(=O)Nc1cc(C)on1 | active: 12.6 µM | 
Cc1occc1-c1nnc(SCC(=O)NCCc2ccccc2)n1Cc1ccccc1 |  | inactive: 0.988%
Cc1oc2c(CN3CCOCC3)c(O)ccc2c(=O)c1-c1ccccc1 |  | inactive: 4.54%
CN1CCc2cccc3c2C1Cc1ccc(O)c(O)c1-3 (configuration not stated) | inconclusive [inhibitor, full curve, poor fit] | 
CC(=O)Nc1ccc(C(=O)CSc2ncn(-c3ccccc3)n2)cc1 | inconclusive [inhibitor, single point] | 
O=C(c1ccco1)N1CCC[C@@]2(CCN(c3cccc(-c4ccccc4)c3)C2)C1 | inconclusive [inhibitor, single point] | 
CCOC(=O)CCc1nc2ccccc2[nH]1 |  | inactive: -9.5%
CCC(=O)N[C@@H]1CCc2cccc(OC)c2C1 | inconclusive [inhibitor, single point] | 
CCC(=O)c1cc(F)c(N2CCN(C(=O)Cc3ccccc3)CC2)cc1C | inconclusive [inhibitor, single point] | 
CC[C@@H]1Cn2c(c3nc(-c4ccccc4)nc-3n(C)c2=O)N1 | inconclusive [inhibitor, single point] | 
Cc1ccc(NC(=O)Nc2cccs2)cc1 | active: 25.1 µM | 
CCCCC/C=C\C[C@H](O)/C=C\c1cccc(C[C@H](O)CCCCO)n1 | active: 20 µM | 
CCn1c(-c2ccc3[nH]c(C)c(C)c3c2)n[nH]c1=S | inconclusive [inhibitor, single point] | 
Cc1cc(C(=O)Nc2ccccn2)cs1 |  | inactive: 5.87%
NNC(=O)CCSc1ccccc1 |  | inactive: 7.74% [at 11.4 µM]
